The list shows a part of the results. Repeats are few or missing, and single values can be far off.
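Also: cells treated in 1,536-well plates, then fixed and DAPI-stained, with nuclei counted from automated high-throughput microscope images.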

The experiment deals with UACC62. In words: cell count relative to DMSO control; melanoma cells; higher = more viable cells. The following applies: library dose: standard library concentration; 72 h.
Consider `N#CC[C@H](C1CCCC1)n1cc(-c2ncnc3[nH]ccc23)cn1` [ruxolitinib] + CC(C)(C)c1cnc(CSc2cnc(NC(=O)C3CCNCC3)s2)o1 [SNS-032] (first compound 5 µM, partner dose 0.05 µM), for which the cell count came to 81.8%.

`CC[C@]1(O)C[C@H]2CN(CCc3c([nH]c4ccccc34)[C@@](C(=O)OC)(c3cc4c(cc3OC)N(C=O)[C@H]3[C@@](O)(C(=O)OC)[C@H](OC(C)=O)[C@]5(CC)C=CCN6CC[C@]43[C@@H]65)C2)C1` [vincristine] + Cc1cc(N2CCOCC2)cc2[nH]c(-c3c(NC[C@@H](O)c4cccc(Cl)c4)cc[nH]c3=O)nc12 [BMS536924] (first compound 0.0005 µM, partner dose 1 µM) returned a cell count of 53.7%.

With `CC[C@]1(O)C[C@H]2CN(CCc3c([nH]c4ccccc34)[C@@](C(=O)OC)(c3cc4c(cc3OC)N(C=O)[C@H]3[C@@](O)(C(=O)OC)[C@H](OC(C)=O)[C@]5(CC)C=CCN6CC[C@]43[C@@H]65)C2)C1` [vincristine] + CC(C)(C)c1cnc(CSc2cnc(NC(=O)C3CCNCC3)s2)o1 [SNS-032] (first compound 0.0005 µM, partner dose 0.05 µM), the cell count came out at 56.3%.

The molecule `N#CC[C@H](C1CCCC1)n1cc(-c2ncnc3[nH]ccc23)cn1` [ruxolitinib] + NC(=O)Nc1cc(-c2cccc(F)c2)sc1C(=O)N[C@H]1CCCNC1 [AZD7762] (first compound 5 µM, partner dose 0.1 µM) gave a cell count of 103%.

For `N#CC[C@H](C1CCCC1)n1cc(-c2ncnc3[nH]ccc23)cn1` [ruxolitinib] + O=C(Nc1cccc(Cl)c1)Nc1ncc(CCNc2ncnc3ccsc23)s1 [SNS314] (first compound 5 µM, partner dose 0.004 µM), the cell count was 99.3%.

Take `N#CC[C@H](C1CCCC1)n1cc(-c2ncnc3[nH]ccc23)cn1` [ruxolitinib] + CN(NC(=O)CC(=O)NN(C)C(=S)c1ccccc1)C(=S)c1ccccc1 [STA4783] (first compound 5 µM, partner dose 0.03 µM): the cell count worked out at 48.1%.

`N#CC[C@H](C1CCCC1)n1cc(-c2ncnc3[nH]ccc23)cn1` [ruxolitinib] + O=C(CCCCCCC(=O)Nc1ccccc1)NO [vorinostat] (first compound 5 µM, partner dose 0.4 µM) gave a cell count of 113%.

As to `Cc1cc(Nc2cc(N3CCN(C)CC3)nc(Sc3ccc(NC(=O)C4CC4)cc3)n2)n[nH]1` [Tozasertib] + OCCn1cc(-c2cnc3nnn(Cc4ccc5ncccc5c4)c3n2)cn1 [PF04217903] (first compound 0.03 µM, partner dose 5 µM), the cell count came to 78.8%.

For the molecule `N#CC[C@H](C1CCCC1)n1cc(-c2ncnc3[nH]ccc23)cn1` [ruxolitinib] + Cc1cc(N2CCOCC2)cc2[nH]c(-c3c(NC[C@@H](O)c4cccc(Cl)c4)cc[nH]c3=O)nc12 [BMS536924] (first compound 5 µM, partner dose 1 µM), the cell count was found to be 102%.

`N#CC[C@H](C1CCCC1)n1cc(-c2ncnc3[nH]ccc23)cn1` [ruxolitinib] + C=CCn1c(=O)c2cnc(Nc3ccc(N4CCN(C)CC4)cc3)nc2n1-c1cccc(C(C)(C)O)n1 [MK1775] (first compound 5 µM, partner dose 0.1 µM) came in with a cell count of 96.4%.

With `N#CC[C@H](C1CCCC1)n1cc(-c2ncnc3[nH]ccc23)cn1` [ruxolitinib] + C[C@@H]1CCN(C(=O)CC#N)C[C@@H]1N(C)c1ncnc2[nH]ccc12 [CP690550] (first compound 5 µM, partner dose 5 µM), the cell count came out at 141%.

Molecule `CC[C@]1(O)C[C@H]2CN(CCc3c([nH]c4ccccc34)[C@@](C(=O)OC)(c3cc4c(cc3OC)N(C=O)[C@H]3[C@@](O)(C(=O)OC)[C@H](OC(C)=O)[C@]5(CC)C=CCN6CC[C@]43[C@@H]65)C2)C1` [vincristine] + CN(C)S(=O)(=O)c1ccc2c(c1)/C(=C/c1cc3c([nH]1)CCCC3)C(=O)N2 [SU6656] (first compound 0.0005 µM, partner dose 2 µM) registered a cell count of 40%.

In turn, `Cc1cc(Nc2cc(N3CCN(C)CC3)nc(Sc3ccc(NC(=O)C4CC4)cc3)n2)n[nH]1` [Tozasertib] + Cc1cc(N2CCOCC2)cc2[nH]c(-c3c(NC[C@@H](O)c4cccc(Cl)c4)cc[nH]c3=O)nc12 [BMS536924] (first compound 0.03 µM, partner dose 1 µM) came in with a cell count of 96.2%.

The values are drawn from the supplement of paper PMC4604168 (melanoma cell lines).
